Among the data in the RNAGym collection of RNA variant scans (doi:10.7554/elife.90254) are self-cleavage values, retold here.

B1: OR4K15 (parent)
chain: GUUAACGGUCAUAGGCCAUGGAAACUAGGAGCACCAUUUCGCUGCCAGUGAAGAAAUGAACAAAGAAAAUCUGGGCCAGGCAGGCAUCAAAAGAAAUAGUCUUGCGCUCAACCAGAAAGUCUGUAAUCAUUUUAAGGGUA

Read counts are not given, so values of variants with three or more changes are uncertain.

This data set covers variants of B1. Description: self-cleavage, relative activity (ratio to wild type); higher = more cleavage; in vitro, sequencing; the parent is a self-cleaving ribozyme.
In the case of GUUAACGUUCAUAGGCCAUGGAAACUAGGGGCGCCAUUUCGCUGCCAGUGAAGAAAUGAACAAAGAAAAUCUGGGCCAGGCAGGCAUCAAAAGAAAUAGUCUUGCGCUCAACCAGAAAGUCUGCAAUCAUUUUAAGGGUA [G8U A30G A33G U124C], the self-cleavage was 1.08.

As for GUUAACGGACAUAGGCCAUGGGAACUAGGAGCACCAUUUCGCUGCCAGUGAAGAAAUGAACAAAGAAAAUCUGGGCCAGGCAGGCAUCAAAAGAAAUAGUCUUGCGCUCAACCAGAGAGUCUGUAAUCAUUUUAAGGGUA [U9A A22G A117G], the self-cleavage worked out at 1.66.

For the variant GUUAACGUUCAUAGGCCAUGGAAACUGGGAGCACCAUUUCGCUGCCAGUGAAGAAAUGAACAAAGAAAAUCUGGGCCGGGCAGGCAUCAAAAGAAAUAGUCUUGCGCUCAACCAGAAGGUCUGUAAUCAUUUUAAGGGUA [G8U A27G A78G A118G], the self-cleavage amounted to 0.47.

Take GUUAACGUCCAUAGGCCAUGGAAACUAGGAGCACCAUUUCGCUACCAGUGAAGAAAUGAACAGAGAAAAUCUGGGCCAGGCAGGCAUCAAAGGAAGUAGUCUUGCGCUCAACCAGAAAGUCUGUAAUCAUUUUAAGGGUA [G8U U9C G44A A63G A92G A96G]: the self-cleavage turned out to be 2.43.

As to GUUAACGGACAUAGGCCAUGGAAACUAGGAGCGCCAUUACGCUGCCAGUGAAGAAAUGAACAAAGAAAAUCUGGGCCAGGCAGGCAUCAAAAGAAAUAGUCUUGCGCUCAACCAGAAAGUCUGUAAUCAUUUUAAGGGUA [U9A A33G U39A], the self-cleavage worked out at 0.94.

With GUUAACGGACAUAGGCCAUGGAAACUAGGAGCACCAUUUCGCUGCCAGUGAGGAAAUGAACAAAGAAAAUCUGGGCCAGGCAGGCAUCAAAAGAAAUAGUCUUGCGCUCAACCUGAGGGUCUGUAAUCAUUUUAAGGGUA [U9A A52G A114U A117G A118G], the self-cleavage came to 0.06.

With GUUAACGGACAUAGGCCAUGGAAACUAGGGGCACCAUUUCGCUGCCAGUGAAGAAAUGAACAGAGAAAAUCUGGGCCAGGCAGGCAUCAAAAGAAAUAGUCUUGCGCUCAACCAGAAAGUCUGUAAUCAUUUUAAGGGUA [U9A A30G A63G], the self-cleavage turned out to be 1.11.

For the variant GUUAACGUUCAAAGGCCAUGGAUACUAGGAGCACCAUUUCGCUGCCAGUGAAGAAAUGAACAAAGAAAAUAUGGGCCAGGCAGGCAUCAAAAGAAAUAGUCUUGCGCUCAACCAGAAAGUCUGUAAUCAUUUUAAGGGUA [G8U U12A A23U C71A], the self-cleavage came out at 0.91.

Consider GUUAACGGACAUAGGCCAUGGAAACUAGGAGCGCCAUUUCGCUGCCAGUGAAGAAAUGAACAAAGAAAAUCUGGGCCAGGCAGGCAUCAAAAGAAAUAGUCUUGCGCUCAACCAGAAAGUCUGUAAUCAUCUUAAGGGUA [U9A A33G U131C], for which the self-cleavage was determined as 0.56.

Regarding GUUAACGGACAUAGGCCGUGGAAACUAGGAGCACCAUUUCGCCGCCGGUGAAGAAAUGAACAAAGAAAAUCUGGGCCAGGCAGGCAUCAAAAGAAAUAGUCUUGCGCUCAACCAGAAAGUCUGUAAUCAUUUUAAGGGUA [U9A A18G U43C A47G], the self-cleavage is 0.67.

Turning to GUUAACGGACAUAGGCCAUGGGAACUAGGAGCACCAUUUCGCUGCCAGCGAAGAAAUGAACAAAGAAAAUCUGGGCCAGGCAGGCAUCAAAAGAAAUAGUCUUGCGCUCAACCAGAAAGUCUGUAAUCAUUUUAAGGGUA [U9A A22G U49C], the self-cleavage was 0.83.

Consider GUUAACGGACAUAGGCCAUGGAGACUAGGAGCACCAUUUCGCUGCCAGUGAGGAAAUGAACAAAGAAAAUCUGGGCCAGGCAGGCAUCAAAAGAAAUAGUCUUGCGCUCAACCAGAAAGUCUGCAAUCAUUUUAAGGGUA [U9A A23G A52G U124C], for which the self-cleavage is 0.27.

On to GUUAACGUUCAUAGGCCAUGGAAGCUAGGAGCACCAUUUCGCUGCCAGUGAAGAAAUGAACAAAGAAAAUCUGGGCCAGGCAGGCAUCAAAAGAAAUAGUCUUGCGCUCAACCAGAAAGUCUGUGAUCAUUUUAAGGGUA [G8U A24G A125G], for which the self-cleavage worked out at 0.47.

Take GUUAACGGACAUAGGCCAUGGAAACUAGGAGCACCAUUUCGCUGCCAGUGAAGUAAUGAACAAGGAGAAUCUGGGCCGGGCAGGCAUCAAAAGAAAUAGUCUUGCGCUCAACCAGAAAGUCUGUAAUCUUUCUAAGGGUA [U9A A54U A64G A67G A78G A129U U132C]: the self-cleavage was determined as 0.08.

Take GUUAACGGACAUAGGCCAUGGAAACUAGGAGCACCAUUUCGCUGCCAGUGUAGAAAUGAACAAAGAAAAUCUGGGCCGGGCAGGCAUCGAAAGAAAUAGUCUUGCGCUCAACCAGAAAGUCUGUAAUCAUUUUAAGGGUA [U9A A51U A78G A89G]: the self-cleavage stood at 0.12.

In the case of GUUAACGGACAUAGGCCAUGGGAACUAGGAGCCCCAUUUCGCUGCCAGUGAAGAAAUGAACAAAGAAAAUCUGGGCCAGGCAGGCAUCAAAAGAAAUAGUCUCGCGCUCAACCAGAAAGUCUGUAAUCAUUUUAAGGGUA [U9A A22G A33C U103C], the self-cleavage came out at 0.41.

As to GUUAACGGACAUAGGCCAUGGAAGCUAGGAGCACCAUUUCGCCGCCAGUGAGGAAAUGAACAAAGAAAAUCUGGGCCAGGCAGGCACCAAAAGAAAUAGUCUUGCGCUCAACCAGAAAGUCUGUAAUCAUUUUAAGGGUA [U9A A24G U43C A52G U87C], the self-cleavage is 1.5.

Regarding GUUAACGGACAUAGGCCAUGGAAACUAGGAGCACCAUUUCGCUGCCAGUGAGGAAAUGAACAAAGAAAAUCUGGGCCAGGCAGGCAUCAGAAGAAAUAGUCUUGCGCUCAACCAGAAAGUCUGUAAUCAUUUUAAGGGUA [U9A A52G A90G], the self-cleavage came out at 0.36.

With GUUAACGUUCAUAGGCCAUGGAAACUAGGAGCACCAUCUCGCUGCCAGUGAAGAAAUGAACAAAGAAAAUCUGGGCCAGGCAGGCAUCAAAAGAAAUAGUCUUGCGCUCAACCAGAAGGUCUGUAAUCAUUUUAAGGGUA [G8U U38C A118G], the self-cleavage is 1.76.

GUUAACGGACAUAGGCCAUGGAAACUAGGAGCACCUUUUCGCUGCCAGUGAAGAAAUGAACAAAGAAAAUCUGGGCCAGGCAGGCAUCAAAAGAAAUAGUCUCGCGCUCAACCAGAAAGUCUGUAAUCAUUUUAAGGGUA [U9A A36U U103C]: the self-cleavage was 0.38.
